# The list shows a part of the results. At the low end of the ranking the order means little.
# Molecular target: T1, GST-Rok-C97-191 (UniProt O34857)
# T1 sequence: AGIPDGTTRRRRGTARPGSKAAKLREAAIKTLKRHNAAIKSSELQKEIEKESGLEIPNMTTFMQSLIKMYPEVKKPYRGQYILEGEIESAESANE
# Assay: protein binding microarray;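 also: rank score from −0.5 (least bound) to 0.5 (best bound)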
# Conditions: Rok is a gene silencer of Bacillus subtilis; high values mean tight binding; most listed sequences are background and not binding sites; double strand, one strand shown
row,Sequence,binding signal [E-score]
1,AACCAAGG,-0.202
2,CGGGAACA,-0.297
3,CTGAGCTA,0.0769
4,CACTACAC,0.0572
5,CCAAGAAG,-0.168
6,CGCTCGGC,-0.407
7,TCGCAAAA,0.0879
8,ATCGTTCA,-0.0994
9,CACTTACG,-0.0754
10,ACGTCGCA,-0.108
11,ACCCTTAT,0.126
12,CAATTAGA,0.145
13,GCTTGTGA,-0.0166
14,CGCTGTAC,-0.0897
15,ACTAATGG,0.148
16,GCGATCTA,0.258
17,TCCAAGAA,0.0241
18,AATTCATA,0.193
19,CGCTTGTC,-0.216
20,GTTTCATA,0.141
21,AGTATGGG,0.121
22,ATCGGTTG,-0.0335
23,CGATGGCA,-0.04
24,CGAATACG,0.0158
25,CGCGGACC,-0.173

row,Sequence,binding signal [E-score]
1,GTTGACTA,0.21
2,GCATTTAA,0.119
3,CTCATTCC,-0.0912
4,ATCCTGGG,-0.0476
5,CTGCTTTA,0.0209
6,CGTCAGTC,-0.134
7,CCAGGTAC,-0.0667
8,CAATTTCC,0.0497
9,TCTTAGAA,0.00431
10,AAATTAGT,0.198
11,ACTCCACC,-0.101
12,GCCTATAA,0.185
13,CAAAACGC,-0.232
14,AACTGCAC,0.164
15,CATTTGCC,-0.118
16,ACAAACAC,0.13
17,GTCCATAA,-0.127
18,ACTTAGCT,0.106
19,CGATCACA,-0.102
20,CACTCATA,-0.000806
21,ACCCTATG,0.0644
22,AACGGCAA,0.102
23,ACCTGTCC,-0.25
24,AGGCGAAA,-0.22
25,TCTTGGAA,-0.157

row,Sequence,binding signal [E-score]
1,CCACATAG,0.14
2,ACTTAGTA,0.308
3,GCTGCCTA,-0.0866
4,CATTTCAC,0.0842
5,ATCAATGA,0.033
6,GCCGCGCA,-0.14
7,ATCCAACC,-0.154
8,GACTAAGC,-0.145
9,AGTGATCC,-0.161
10,CGAGTCTA,-0.0403
11,CGATTGCA,0.0871
12,TCAGACGA,-0.198
13,AGAAACGA,0.0449
14,ACGTCCTC,-0.191
15,GCACTCAC,-0.0731
16,AGTACATC,0.273
17,ATAGGCCA,0.0178
18,GCCACCTA,-0.136
19,GCAGAAGA,-0.104
20,AGGACTCG,-0.161
21,CGATTAGA,-0.0399
22,AAGTGTCT,-0.0685
23,CGCGAGCC,-0.167
24,AAAAAAGT,-0.0319
25,CTATCAGC,-0.0263

row,Sequence,binding signal [E-score]
1,GGAGTTGA,-0.137
2,AGTGGAAT,-0.0459
3,GTAAGGTA,0.162
4,CGGAGGAG,-0.243
5,ATCTCCAA,0.115
6,ACGTGCCG,-0.148
7,AACAGGTA,0.0913
8,GTCCTCAC,-0.133
9,GATGGTGC,-0.106
10,CCGAGCCG,-0.368
11,AGTGACGA,0.00289
12,ATATTTCC,0.269
13,GGTTCGTA,-0.183
14,GACGTCCC,-0.341
15,GGTGAACC,-0.195
16,CAGCACAC,-0.111
17,CGCGTACG,0.0594
18,AATTACAG,0.249
19,CTTCTGCA,-0.024
20,CCCCTTGC,-0.421
21,AACGTGAA,0.019
22,CGCCAAAA,-0.192
23,CACCCGTC,-0.0736
24,AAGTCCTC,-0.103
25,AAAGGGTA,0.143

row,Sequence,binding signal [E-score]
1,AGAATCAA,0.123
2,GTATTTAA,0.273
3,CCAGGAGA,0.0367
4,AAGCGGCT,0.111
5,CCCGTGTA,0.123
6,GACCTGCA,-0.0827
7,ATCACCCG,0.000296
8,ACTGTAAG,0.000879
9,CCCGCATC,-0.234
10,ACACATTA,0.188
11,CGAGACAA,-0.00462
12,AAACTACA,0.387
13,TACTCAAA,-0.00786
14,AGTTTGTC,0.0866
15,GCCACAAC,-0.227
16,GATCCATC,-0.112
17,AATTGTAT,0.235
18,CAGTTGCC,-0.243
19,CAAGAATC,0.0803
20,CAAATTGG,-0.0834
21,CAAAACTC,0.162
22,CATGATCG,-0.118
23,ATGTTGGG,0.0852
24,TGACTAAA,0.0396
25,CTTTCGCC,-0.0797

row,Sequence,binding signal [E-score]
1,TCGTAAAA,0.184
2,AGACGCAG,-0.17
3,CATTCCGC,-0.168
4,CCATGTCA,-0.0435
5,AGCTCAGC,-0.187
6,GGAGTCAC,-0.0785
7,GAGGTGAC,-0.223
8,CGGGTCGC,-0.173
9,ATACAATC,0.175
10,ATTAGTCA,0.267
11,ATGACGAG,-0.0694
12,CTTCACTC,-0.166
13,ACGACGTA,-0.122
14,CCATTGAG,-0.0693
15,GTTACCCA,0.0211
16,AATAGGGT,0.0409
17,CGAGCCTC,-0.276
18,GACATATC,0.122
19,AGCGTGGC,-0.312
20,ACCGTCCG,0.0225
21,AGAGCGAC,-0.247
22,AGAAATGA,0.0703
23,TAAAAAAA,0.328
24,AAATAAAC,0.155
25,AATTCCGT,-0.00528

row,Sequence,binding signal [E-score]
1,CTCGGCCC,-0.364
2,GAACGGGC,-0.217
3,CATCGATG,0.068
4,AATGATAT,0.249
5,AGTGAGCC,-0.123
6,AAGAGGGA,-0.0544
7,CACGCATA,0.0976
8,CCTCATGC,-0.169
9,CGAAGGTC,-0.245
10,GCGTTAAA,-0.218
11,ACTAATCA,0.133
12,AACTAGGT,0.318
13,GTTAACGA,0.0428
14,GTAGGTAA,0.264
15,AGCGCCGG,-0.146
16,AAATCGAT,0.073
17,AACCTAAC,-0.0809
18,ATGTGGAG,0.102
19,AGCCCGCC,-0.233
20,AACCGGGT,-0.146
21,AGCAATAG,0.244
22,GTCGACGA,-0.206

# From article PMC6212790
